# According to PubChem BioAssay AID686979 (National Center for Advancing Translational Sciences (NCATS), 2013):
# Hit rate of the full screen: of about 420,000 compounds, about 50,000 (12%) were called active. Inconclusive results, whose numbers are uncertain, are shown with a selection of clear calls. The call rests on the fitted dose curve; in most records, active means well fitted inhibition curve with a large enough effect; inconclusive means small, poorly fitted or top-dose-only effect; inactive means flat fitted curve, though single readings scatter. No potency is given beside an inconclusive call; the fits are too rough.
# Experiment: qHTS for Inhibitors of human tyrosyl-DNA phosphodiesterase 1 (TDP1): qHTS in cells in presence of CPT; further: nearly all actives have a fitted effect of over 55% in size
# Details: chicken DT40 Tdp1-/-;hTDP1 cells + 20 nM CPT, ATP luminescence, 48 h; activity change, negative = growth inhibition: at 46.2 µM (top of the series) unless noted
# Procedure, shortened: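 Cell growth measured by CellTiter-Glo luminescence after a minimum 48 h, 37 C compound exposure with 20 nM CPT in Tdp1-knockout DT40 cells stably expressing hTDP1, seeded 400/well; qHTS titration format.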
# On the % scale 0 is the no-effect control and ±100 the full control effect; potency means the concentration at half of the fitted maximal effect; tags describe the fitted curve by direction and shape.
SMILES,Potency,"activity change, negative = growth inhibition"
O=C(CCS(=O)(=O)c1ccccc1)Nc1ncc([N+](=O)[O-])s1,active: 8.2 µM,
COc1cccc(/C(C)=N/N=C(\C)c2cccc(OC)c2)c1,inactive,
COc1ccc(N2CCN(C(=O)C3CCN(C(=O)c4cccc(Cl)c4)CC3)CC2)cc1,,inconclusive: -33.1% [inhibitor]
O=C(Nc1c(C(=O)O)oc2ccccc12)c1ccc(C(F)(F)F)cc1,"inconclusive [inhibitor, single point]",
CC(=O)Oc1ccc(-c2cccc(C(=O)OCC(=O)N(C)c3ccccc3)c2)cc1,"inconclusive [inhibitor, single point]",
Cn1nc(C(=O)N2CCN(c3ccccn3)CC2)c2ccccc2c1=O,"inconclusive [inhibitor, single point]",
CCOC(=O)N/N=C\c1ccc(C)s1,inactive,
COc1ccccc1NC(=O)C1CCCN1S(=O)(=O)c1ccc(Cl)cc1 (stereo unspecified),"inconclusive [inhibitor, single point]",
CCCOc1ccc(F)cc1-c1cc(C(=O)NCc2cccs2)[nH]n1,active: 23.1 µM,
CCOC(=O)c1cnc(-c2ccccc2)nc1N1CC(C)OC(C)C1 (stereo unspecified),"inconclusive [inhibitor, single point]",
O=C(NC1CCN(Cc2ccccc2)CC1)c1ccc(Cn2c(=S)[nH]c3ccc(N4CCOCC4)cc3c2=O)cc1,"inconclusive [inhibitor, single point]",
Cc1c(C(=O)NC(C)C)oc2c1-c1[nH]ncc1CC2,"inconclusive [inhibitor, partial curve, poor fit]",
CCOc1ccc(CN2CCC(n3nccc3NC(=O)c3ccccc3OC)CC2)cc1,active: 16.4 µM,
CCCCCOC(=O)C1=C(C)Nc2nnnn2C1c1ccccc1Cl (stereo unspecified),"inconclusive [inhibitor, single point]",
Cc1cc(C)c(-c2c(O)c3c(n(C)c2=O)CC(C)(C)CC3=O)c(C)c1,"inconclusive [inhibitor, partial curve, poor fit]",
CCCSc1nnc(NC(=O)c2nc(SC)ncc2Cl)s1,inactive,
CCCC(=O)Nc1ccccc1-c1nnn(CC(=O)Nc2ccc(OC)cc2)n1,"inconclusive [inhibitor, single point]",
Fc1cccc(Cc2c(-c3ccco3)nc3ccc(Cl)cn23)c1,"inconclusive [inhibitor, single point]",
Cc1cc(C)cc(C(=O)NCC(=O)N2CCN(c3cccc(Cl)c3)CC2)c1,"inconclusive [inhibitor, single point]",
Cc1ccc(C)c2[nH]c(=O)c(C(c3nnnn3CCc3ccccc3)N3CCOCC3)cc12 (stereo unspecified),"inconclusive [inhibitor, single point]",
COC(=O)c1c(C(C)=O)c(C)n(C)c1C,inactive,
C[C@H]1CN([C@@H](C)CO)S(=O)(=O)c2ccc(Br)cc2O[C@@H]1CN(C)C(=O)Cc1ccccc1,"inconclusive [inhibitor, single point]",
CC(C)(C)OC(=O)NCCCCCc1cn([C@@H](CO)C(=O)NCCCCCCCCCCC(=O)N2CCN(C(=O)OC(C)(C)C)CC2)nn1,active: 2.59 µM,

SMILES,Potency,"activity change, negative = growth inhibition"
Cc1ccccc1OCC(=O)N(Cc1ccc(N(C)C)cc1)C1CCS(=O)(=O)C1 (stereo unspecified),inactive,
C=CCn1c(SCC(N)=O)nc2ccccc2c1=O,inactive,
CCOC(=O)c1c(C)[nH]c(C)c1S(=O)(=O)NCCc1ccco1,inactive,
O=C(COc1cccc2cccnc12)N/N=C/c1ccc(O)cc1,"inconclusive [inhibitor, single point]",
CC(C)C(NC(=O)c1ccccc1Br)c1ccccc1 (stereo unspecified),"inconclusive [inhibitor, single point]",
Cc1ccc(CN2CCCOCCS2(=O)=O)cc1,inactive,
COc1cccc(CNS(=O)(=O)c2ccc3c(c2)CCN3C(=O)C2CC2)c1,"inconclusive [inhibitor, single point]",
O=C(O)c1cccc(S(=O)(=O)N2CCN(C(c3ccccc3)c3ccccc3)CC2)c1,inactive,
COc1ccc(NC(=O)c2c(NC(=O)CCC(=O)O)sc(-c3ccccc3)c2C)cc1,inactive,
O=C(COc1ccc2c3c(c(=O)oc2c1)CCC3)N1CCN(c2ccc(F)cc2)CC1,"inconclusive [inhibitor, single point]",
COCCNCCCOc1ccc(C)cc1Br,"inconclusive [inhibitor, single point]",
CCCCCCOc1ccc(C2C(=O)N(C3CCCCC3)CC(=O)N2CCCC)cc1 (stereo unspecified),"inconclusive [inhibitor, single point]",
COc1ccccc1NS(=O)(=O)c1cc(NC(=O)Cc2n[nH]c(=O)c3ccccc23)ccc1Cl,"inconclusive [inhibitor, single point]",
CCN(C(=O)COC(=O)c1cc(Cl)ccc1OC)c1c(N)n(Cc2ccccc2)c(=O)[nH]c1=O,inactive,
CCOc1ccc(C(CN2CCOCC2)C(C)=O)cc1OC (stereo unspecified),active: 4.11 µM,
O=C(Cc1csc(Nc2nc(=S)[nH]c3ccccc23)n1)NCc1cccc(Cl)c1,"inconclusive [inhibitor, single point]",
COC(=O)c1ccc(NC(=O)c2ccccc2NS(C)(=O)=O)cc1,"inconclusive [inhibitor, single point]",
COc1cc(C(c2nnnn2C2CCCC2)N2CCc3ccccc3C2)ccc1O (stereo unspecified),"inconclusive [inhibitor, single point]",
Cc1cc(-c2nnc(CCC(=O)NC(Cc3ccccc3)c3ccccc3)o2)no1 (stereo unspecified),inactive,
COc1ccccc1NC(=O)CCC(=O)N(Cc1ccc(OC)c(OC)c1)c1nccs1,inactive,
O=C(CN1C(=O)CCc2cc(S(=O)(=O)N3CCOCC3)ccc21)Nc1cccc(C(F)(F)F)c1,"inconclusive [inhibitor, single point]",
Cc1ccc2nc(-c3cccc(N)c3)oc2c1,inactive,
COCCOC(=O)C1=C(C)NC(=O)CC1c1cc2c(cc1Br)OCO2 (stereo unspecified),,inconclusive: -35.7% [inhibitor]
